SMILES strings stand for the structures.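 Briefly, cells in 96-well plates were exposed to five compound concentrations for 48 h, and endpoints were estimated by linear interpolation. At the GI50, growth is halved.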 Calls of active or inactive are those of the source. Rule as the data show it: active = GI50 up to about 1.1 µM and inactive = higher. Where only a bound is given, the exact number is not on record here.

This test has as its system NCI-H322M. Briefly: growth of human tumour cells (NCI), 48 h.
As for `CC(C)CC1c2[nH]c3ccccc3c2C[C@H]2C(=O)NC(Cc3c[nH]c4ccccc34)C(=O)N12` (stereo partly specified), the GI50 is inactive: 18.3 µM.

`CN1CC[C@@]2(c3cccc(O)c3)CC(=O)/C(=C/c3ccc(Cl)c(Cl)c3)[C@H]1C2`: the GI50 is inactive: 4.03 µM.

Regarding `COC(=O)[C@@]1(C)CCC[C@]2(C(=O)O)C3Cc4occc4[C@H](C)[C@@H]3CCC21` (stereo partly specified), the GI50 is inactive: 68.9 µM. For the compound `CCN(CC)CC(O)CNc1ccc(NCC(O)CCl)c2c1C(=O)c1ccccc1C2=O` (stereo unspecified), the GI50 is inactive: 7.87 µM. With `Cc1ccc(/C=C2\Cc3cc(C)c(C)cc3C2=O)c(C(=O)O)c1` the figure was inactive: 45.4 µM. The value for `Brc1ccc2c(c1)C1=C(CO2)Cc2ccccc2O1` was inactive: 18 µM; that for `COc1cccc2c1C(=O)c1c(O)c3c(c(O)c1C2=O)C[C@@](O)(C(=O)CO)C[C@@H]3OC1CC(N2CCOCC2)C(O)C(C)O1` (stereo partly specified) was active: 0.00348 µM. With `C[C@@H](C(=O)O)N1C(c2ccco2)=C(/C(C=O)=C\c2ccco2)C(=O)/C1=C\c1ccco1` the figure was inactive: > 100 µM. Turning to `O=c1oc2ccc(Cl)cc2cc1C1=CSC2=NCCN12`, the GI50 is inactive: 21.7 µM.

For the compound `Cc1ccc(S(=O)(=O)N/N=C2/C3C(CC2(C)C)C2(C)CCCC3(C)C2O)cc1` (stereo unspecified), the GI50 is inactive: 19.1 µM. The value for `Cc1c2ncccc2c(C)c2c1[nH]c1ccccc12` was inactive: 8.75 µM; that for `CCC(C)c1cnc(CC(C)C)c(=O)[nH]1` (stereo unspecified) was inactive: > 100 µM; that for `OC(c1ccccc1)(c1ccccc1)c1ccccn1` was inactive: 77.6 µM.

Take `COC(=O)/C(=N/Nc1cccc(Cl)c1)C(C(=O)C(=O)Nc1cccc(Cl)c1C)c1nc2ccccc2nc1C` (stereo unspecified): the GI50 is inactive: > 100 µM. For `Cc1cn(CCC(N)C(=O)O)c(=O)[nH]c1=O` (stereo unspecified), the GI50 was inactive: > 100 µM. The value for `COc1ccc(C(=O)O[C@@H]2CCN3CC[C@H](C)[C@H]23)cc1` was inactive: > 100 µM. The value for `O=C1CCC(=O)N2CCCCN12` was inactive: > 100 µM. The value for `CCOC(=O)c1nc2ccc(C(F)(F)F)cc2nc1Oc1ccc(C(=O)OC)cc1` was inactive: > 100 µM; that for `CC(=O)OC1COC(n2nc(/C=C/c3ccc(Cl)cc3)c(=O)n(/N=C/c3ccccc3)c2=S)C(OC(C)=O)C1OC(C)=O` (stereo unspecified) was inactive: > 100 µM. Take `O=C(CC1(O)C(=O)Nc2ccccc21)c1ccco1` (stereo unspecified): the GI50 was inactive: > 100 µM. With `COc1cc([C@@H]2c3cc4c(cc3[C@@H](NCc3ccccc3)C3COC(=O)[C@@H]32)OCO4)cc(OC)c1O` (stereo partly specified) the figure was inactive: 26.2 µM; with `O=C(NS(=O)(=O)Nc1ccc(Cl)cc1)OCc1ccc(Cl)cc1Cl`, inactive: 21.2 µM; with `N#Cc1c(-c2ccc([N+](=O)[O-])cc2)c2c([nH]c1=O)-c1ccccc1CCC2`, inactive: > 100 µM. With `C=CCN(c1cc(OCc2ccccc2)c(NC(C)=O)cc1[N+](=O)[O-])S(C)(=O)=O` the figure was inactive: 28.8 µM; with `COc1ccc([C@H]2C=C(c3cc(F)c(Cl)cc3Cl)N=c3s/c(=C\c4ccc(-c5ccc(Cl)cc5Cl)o4)c(=O)n32)cc1`, inactive: > 100 µM. The value for `CCOC(=O)/C=C(/C(=O)OCC)n1ccc(=O)n(Cc2cn(COCCOC(C)=O)nn2)c1=O` was inactive: > 100 µM; that for `COc1cccc(N2C(Cl)C(=O)C2c2c[nH]c3ccccc23)c1` (stereo unspecified) was inactive: > 100 µM. As for `COc1cc(C2C(C(=O)O)=C(C)Oc3cc4c(cc32)OCO4)cc(OC)c1OC` (stereo unspecified), the GI50 is inactive: 37 µM.

Regarding `O=S(=O)(O)C1=C2Sc3ccccc3N=C2c2ccccc2C1`, the GI50 is inactive: 16.6 µM. With `CC(=O)Nc1cc(C(=O)Nc2cc(C(=O)N3CC(CCl)c4c3cc(N)c3ccccc43)nn2C)nn1C` (stereo unspecified) the figure was active: 0.106 µM. `COc1cccc(-c2cc(O)c3c(C)cc(C)nc3n2)c1`: the GI50 was active: 0.729 µM.

For the origin of these results see ChEMBL document CHEMBL1201862, “PubChem BioAssay data set” (2004).
